Read counts are not given, so values of variants with three or more changes are uncertain.
B1: CPEB3 Ribozyme (parent)
chain: UAACAGGGGGCCACAGCAGAAGCGUUCACGUCGCAGCCCCUGUCAGAUUCUGGUGAAUCUGCGAAUUCUGCUGUAUAUCUC

Variants of: B1
Test: self-cleavage, relative activity (ratio to wild type); higher = more cleavage; in vitro, sequencing
How it was run: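 CPEB3 self-cleaving ribozyme mutant libraries were made by rounds of error-prone PCR, barcoded, and transcribed in vitro with T7 RNA polymerase for 5 hours at 37°C. Cleavage occurred during transcription and a 15 min DNase I step before EDTA stop. RNAs were reverse transcribed with template switching and Illumina-sequenced, with DNA sequencing mapping barcodes to variants. Relative activity is the variant's cleaved/total read fraction divided by wild type's (minimum 5 reads), averaged across three batches.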

Variant | self-cleavage
A45C U51C U72C | 0.22
A45C U60C A64G | 0.19
A45C U66C U69C | 0.16
A45C U67C U69C | 0.54
A45G A47C U69C U74A | 0.21
A45G A47G A56C A57G U76C | 0.08
A45G A47G C59U | 0.21
A45G A47G U49C U51C U80C | 0.18
A45G A47G U51A | 1.01
A45G A47U U51C A65G A75G | 0.13
A45G A56G C62A U72A | 0.38
A45G A56G U67A | 0.36
A45G A56G U72C | 0.69
A45G A56U A75G | 0.37
A45G A56U U60C U80C | 1.16
A45G A57G U69C | 0.42
A45G A57G U74C | 0.86
A45G A75G U78G | 1.16
A45G A77U U80C | 0.98
A45G C68A U74C | 0.33
A45G G46A U49C U78C | 0.18

Variant | self-cleavage
A45G G46C U51A U54C U67A | 0.15
A45G G46U A56U U72C | 0.07
A45G G52U U72C U80C | 1.22
A45G G53A A56U | 0.21
A45G G70A U78C | 0.54
A45G U48A A57G C59U U60C U72C | 0.11
A45G U48A U60C A65G | 0.34
A45G U48A U76A | 0.14
A45G U48C A57G A77U | 0.72
A45G U48C A64C A77G | 0.18
A45G U48C U76A | 0.17
A45G U49C A64U C71G | 0.07
A45G U49C U51G U58C U60A C81G | 0.11
A45G U49C U58C | 0.07
A45G U49C U60A | 0.17
A45G U49C U60A G63C U69C | 0.07
A45G U49G G55A U60C | 0.83
A45G U51A A56G U66C U69A U80C | 0.15
A45G U51A G55A G63A | 0.53
A45G U51A G63A | 0.77
A45G U51C A56G U67C | 0.14

Variant | self-cleavage
A45G U51C A57G A64U | 0.05
A45G U51G U72C U74C | 0.96
A45G U54A A56U U66C | 0.11
A45G U54A A64G U69C | 0.35
A45G U54C A65U | 0.39
A45G U54C U58C U67C | 0.1
A45G U54C U60C U69A | 0.55
A45G U54G A64U U69A | 0.34
A45G U58A U72A | 0.28
A45G U58C U67C U80C | 0.3
A45G U60C A64G | 0.99
A45G U60C A64U A65G U69C | 0.09
A45G U60C U69C | 0.64
A45G U66C A75G | 0.08
A45G U66C U80A | 0.35
A45G U67C U80C | 0.39
A45G U69A A75G | 0.27
A45G U69C C81U | 0.39
A45G U74C A75G | 0.83
A45G U74C U80A | 1.21
A45G U76C U78G | 0.72

Variant | self-cleavage
A45U A47G U60A A77G | 1.01
A45U A56G A57C A64U U76C | 0.13
A45U A56G U58C U72C | 0.21
A45U A57G G63A A64G | 0.41
A45U A57G U72A | 0.19
A45U A64G U67C A75G | 0.66
A45U A65U U72C U78C | 0.42
A45U A77C U80C | 0.35
A45U C50A G52A | 0.28
A45U C71G U72A | 0.13
A45U G46A G52U | 0.1
A45U G52A C62A | 0.59
A45U G53A U67A U72A | 0.23
A45U G63A U66A | 0.3
A45U G63A U69A | 0.14
A45U G73A U78C | 1.24
A45U U48C C59A U78C | 0.06
A45U U48C U54C | 0.16
A45U U48G U51A | 0.11
A45U U49A A64G | 0.15

Source: the RNAGym collection of RNA variant scans (doi:10.1093/nar/gkz1192)
